Results taken from PMC12136788.
The list shows a part of the results.

T1: UNK ZnF1-3 (human, UniProt Q9C0B0 31-174)
T1 sequence: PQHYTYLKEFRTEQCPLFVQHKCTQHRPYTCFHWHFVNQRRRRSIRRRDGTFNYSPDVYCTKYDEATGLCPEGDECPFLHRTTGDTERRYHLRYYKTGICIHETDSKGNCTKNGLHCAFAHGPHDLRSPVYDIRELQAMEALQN

B1: chr10:70028019:70028020:-_ENSMUSG00000037747_ENSMUST00000162251|mus_mus|FALSE|FALSE (ssRNA)
RNA: GGGAGUUCUACAGUCCGACGAUCAGCCUUCUCCAGCAGCUGUGUUAGAUGAACUUUGGAGUAAUCUGCUGUACAGAAUUCUAUAAUCUCACUCCAUUCAGACACGACGUAAUCACCAUCAACCUGUUUUGAGGCAGUCUGUACCAACAGAGGAUUGAGCAUCA
B2: chr8:95500983:95500984:-_ENSG00000164944_ENST00000437199|hu_hu|hu_hu_hu_mus_True|38_58 (ssRNA)
RNA: GGGAGUUCUACAGUCCGACGAUCAGAACACAUCUAUCGAGUAAAGGACCGUACAUGACGGCCUCUACCACUGCCUCCCACUAACAACUUUCCUCUCUGAGCCUCCAUGCCGCUAUUUGUACUAGCCCAGGACGGUCCCAGGCCCAACAGAGGAUUGAGCAUCA
B3: chr1:35656432:35656433:-_ENSG00000116560_ENST00000357214|perfect_dup|FALSE|FALSE (ssRNA)
RNA: GGGAGUUCUACAGUCCGACGAUCAGAUCUUCCACGAUCAUCCACUAUUACAACAGCCCUUUCAAUAGGACCAAAUUGGCUAAAGGCUUCUUCCAACAGUUCAUUGGAAACAUAAGGUGAAAGAUUACGAACAGAAAGGGCAGCCAACAGAGGAUUGAGCAUCA
B4: chr11:95591783:95591784:-_ENSG00000087053_ENST00000352297|hu_hu|motif|central (ssRNA)
RNA: GGGAGUUCUACAGUCCGACGAUCCUCAAAUAUGGAUCUUCUUGUCCGCCCCUCAGGUUUAUGAGCAAAUCGUAAAUUCCGGAUAUCCUUACACACAGUUUCUAGUCCAUAAGAAUUUUCACCUCGACUAGAAGCACCACCAAUCAACAGAGGAUUGAGCAUCA
B5: chrX:109746815:109746816:+_ENSMUSG00000025529_ENSMUST00000071814|perfect_dup|motif|central (ssRNA)
RNA: GGGAGUUCUACAGUCCGACGAUCGGUUUUAAAGUCACAAUGCCUACACUGGUGAAUCUUCCUACCCUUAUGAAUAUCACGGUGUUUUUUAAGCUCUGAAGGACGAUGAAAACCUUUAUCACAGACUUCACAUUUGUGAGGAAACAACAGAGGAUUGAGCAUCA
B6: chr1:39494447:39494448:+_ENSG00000168653_ENST00000372967|hu_mus|hu_hu_hu_mus_False|8_68 (ssRNA)
RNA: GGGAGUUCUACAGUCCGACGAUCGCACCGAGCGGCGUUCUUAUAGGGCUGUUCUGCGCUUAGGAACGUCAACCAUCGGUCCAGGCUGAUGCCCAGCUUUUUCUGUAUGUCAAGGAAAGGCAUGGCUGAUGCUCGUGCUUGUCACAACAGAGGAUUGAGCAUCA

The binders below were run against T1, UNK ZnF1-3 (assay: nsRBNS (natural sequence RNA bind-n-seq); RBNS binding buffer (assumed for nsRBNS): 25 mM Tris pH 7.5, 150 mM KCl, 3 mM MgCl2, 0.01% Triton X-100, 500 ug/ml BSA, 20 U/ml SUPERase-In, 4 C; UNK is unkempt and MSI1 is Musashi-1; names of the RNAs are library labels; protein concentration not given here; high values mean tight binding).

Binder | binding signal
B1 | 1.74 enrichment R
B2 | 1.13 enrichment R
B3 | 1.07 enrichment R
B4 | 1.01 enrichment R
B5 | 0.879 enrichment R
B6 | 0.636 enrichment R
